Sequences with one replicate were seen in a single cluster, so their values are uncertain.
Tested on: ATP
Assay: switch fluorescence ratio, 500 uM ATP over buffer (Cy3 cluster intensity, sum of 5 cycles each) (fold (ratio)); higher = stronger signal-on switching upon ATP binding; sequences stand for … in TCGTCGGCAGCGTCAGATGTGTATAAGAGACAGTTTTTTTTTTTTTTTTTTTTTTTTT…TC
Conditions: aptamer strand: ATP DNA aptamer (quencher-CACCTGGGGGAGTATTGCGGAGGAAGG + anchor), 100 nM annealed; ATP concentration: 500 uM; one replicate
In short: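 Clusters with intensities outside 100-1000 RFU were excluded. The remaining Cy3-labelled switching-strand clusters on a modified Illumina MiSeq flow-cell had been annealed to 100 nM quencher-labelled ATP aptamer and imaged in selection buffer, then after 15 min with 500 uM ATP at 22 °C, for five cycles separated by NaOH stripping and re-annealing. The fluorescence ratio, averaged per switch-domain sequence, is each cluster's summed target-cycle Cy3 intensity over its summed buffer-cycle Cy3 intensity.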
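Further: ATP exposure 15 min at 22 °C before imaging.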

Sequence | switch fluorescence ratio
CAGAAGATCG | 0.998
ATGGGAAGTG | 1.05
CAGCGGGAGA | 1.06
ATTATGTTAC | 1.03
CAATTGCACT | 1.02
TGGCGATGGG | 1
GAGCGCTGTG | 1.01
TTAGTGCGCA | 0.999
TAGAGTGATC | 0.998
AAGTGTCGG | 0.987
TAAAGGGTT | 0.966
CAACTTCAGG | 1.01
CAGTTATCCC | 1.04
GGTCAAGGAA | 0.99
GGTACAGAGA | 1.05
ATCTTGCATA | 1.01
TTGAATGCGT | 0.948
AAGCCCTGG | 1.07
GGCGGCGGAT | 1.02
AAAATAGACT | 0.987
TTACCGACGA | 1.7
TACGGTGGCC | 0.991
GCTTCTAATT | 1.01

Sequence | switch fluorescence ratio
CTGTTCGTTC | 0.973
ATGTTGGAGA | 1.02
AGAAAAGAAT | 1.06
GACCCGGCGA | 1.1
ACAGTCAATG | 0.997
CATTGAGACC | 1.18
CATCAGCT | 1.12
TTCTGCTGTG | 1.02
ATTTCTGAGG | 1.17
CTCTACTTTG | 0.974
GCATGTATAC | 1.44
ATTAGCACAA | 1.18
TTGCGCGCAT | 1.02
AAGCGTGCAC | 0.982
TTGCTAGCGT | 1.04
AGCGAGCTAA | 1.03
GCAGCCCGG | 1
CTTATTTAAA | 0.988
GGGCCCAAAC | 0.977
ACGGCTTGGC | 1.04
CGAGGTCTCC | 1
TCAGAGCATA | 1.92
AGACATCAAC | 1.07

Sequence | switch fluorescence ratio
TACCATTTCT | 1.04
TAGACGGTTA | 1.04
CAGACTGTCC | 1.05
TGAGCACGAC | 1.33
CCGGGGTTTA | 1
AGGACGAGTA | 1.04
GAGTTCTTGC | 1
TATGCAGGGG | 0.982
TTTTCATCAC | 1.02
AAATGATCAG | 0.961
AGTTGAATG | 0.999
TGTGGGCCTA | 0.98
GACGGAAATG | 1.06
AATCTTGCCA | 0.996
GAGGATAGAT | 0.996
ATGGGTTCCA | 1.01
GGGCTAGGCG | 1.01
CGGGGAGCGG | 0.93
TCTCGGTGGG | 0.976
GTGTGAACTG | 1.04
TAGTAAGAA | 0.996
AGGGCACTCG | 1.02
GAAGCCCCAG | 1.02

Sequence | switch fluorescence ratio
CTAAAGGCAT | 1.02
TGTCGATTCC | 1.06
ATCGAAAGAT | 0.981
GGCGTGAGGA | 1.02
CAATAGGAGT | 1
CGGATCTATG | 0.947
AGTGCCAGCT | 0.963
AATCATGCCC | 1.05
GGCGAGCCTC | 1.02
CCACTCTGGA | 0.965
GATACTCAAA | 1.32
GGATCACTCG | 1.04
ATACTCCAT | 1.15
ATGTAGGTA | 0.989
CTCATCATCG | 0.982
GCGTCGACAG | 0.977
AGAATCAACA | 1.01
TTTAATGAGA | 1.03
GTACATAGGT | 1.03
TATACAAGGG | 1.02
GCTGAGGCTA | 1.04
CTTGTAGAGC | 1.06
GGTTAGCGCG | 1.02

Sequence | switch fluorescence ratio
GGCCTCTAAT | 1.02
ACGACAGCGA | 2.63
GCCCGATCAT | 1
TCGCTTGT | 1.05
CTATCCGACA | 1.26
ATGCAAGCGC | 0.979
TATTTGTTAA | 0.984
CCCAGAGGTC | 0.99
TAATTACAAA | 1.01
CTCGGGGAGC | 1
CACTGGCAGC | 1.06
TCTCTTAAAC | 1.01
GCACGCCGCG | 1.08
TCGTCCTTTC | 1.27
GCGGTCTGAC | 1.1
CGTTATTACG | 0.965
ATTTCGTGG | 0.967
ATAGTAGGAC | 1.03
CACATGCTTT | 0.985
CTCTAGTATA | 0.954
CAGGATCTTA | 1.03
AAAATAGAAA | 0.959
AATTCGGAA | 1.05

Sequence | switch fluorescence ratio
TCCGTCGTGC | 1.3
CTCTACTTTA | 1.06
GCTAGTTTTG | 1.01
ACCTCACATA | 1.23
CACGAACTCA | 1.34
ATCGGCTTTC | 1
TCGGGCTTAT | 1.02
GCTGACCTGA | 1.03
GTAGATTAAA | 1
TCCAGCCAGA | 1.02
ATTTCCTGTT | 0.991
ATCAATTAGC | 0.966
TGCGCTTAG | 0.987
ACGGACGGTC | 0.933
GTTTCGGTT | 0.955
CTGTTCTGGT | 0.98
CGAAACCCAT | 1
TTCTGCTCCC | 1.04
ATCACACACC | 1.44
CATGCTCAGT | 0.992
TAGGCAAAAA | 0.97
GCGTAAGGGG | 0.969
TTTTGTAGTA | 0.959

Sequence | switch fluorescence ratio
GAGCGAAGAG | 0.996
ACCATGGCAA | 1.02
AAAAATATAG | 1.05
GCAATTCGTG | 1.12
TTCTGGTCTG | 0.993
TCTAAAGA | 0.986
CAAGCGATTC | 1.82
GATTCGAGCC | 0.989
AGGTCCAGTG | 1.07
TCGTTGCTAT | 1.02
AAGGGAAAAC | 1.06
ATCGATCACC | 1.07
GCTCACATGC | 1.1
TTGCAATTGC | 1.07
GGTACGCGGG | 0.975
AGTAGAAGGA | 0.979
GATCGAAGTC | 0.988
TACGGTTATA | 1.07
TGCAGATAGT | 1.16

Source: the supplement of paper PMC10126150
